Here are results for five molecules from patent US20260193317A1, “COMBINATION THERAPY WITH ACTRIIB RECEPTOR VARIANTS AND GLP-1 AGONISTS” (35PHARMA Inc., priority 2023, published 2026).

One data set addresses T1, BMP-10 (Homo sapiens, UniProt O95393).
T1 sequence (O95393 317-424): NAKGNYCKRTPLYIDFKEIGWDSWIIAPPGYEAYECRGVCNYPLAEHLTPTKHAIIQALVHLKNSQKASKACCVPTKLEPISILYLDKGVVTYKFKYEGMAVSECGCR
Briefly: BMP-reporter HepG2 cell-based assay: BMP-10 neutralization. The protocol:
Characterization of the BMP-9 and BMP-10 inhibition potency (IC50) of the fusion proteins was performed using a second cell-based reporter assay. Human hepatic HepG2 cells were transfected with a SEAP-encoding plasmid, in which SEAP expression is under the control of the murine Id1 promoter. A stable pool was generated from this transfection. Cells were grown in EMEM, containing 10% heat-inactivated FBS and 200 μg/mL zeocin (hereafter, “HepG2 growth medium”). […] For all assays, cells were seeded in 96-well plates at a confluence of 100,000 cells per well in HepG2 growth medium. Cells were left to attach for 10 minutes at RT prior to being transferred to a 37° C. incubator (5% CO2) overnight. The next day, treatments were prepared in EMEM (2.5% heat-inactivated FBS and with no selection agents) by combining the appropriate concentration of agent with BMP-9 or BMP-10 for 30 min at RT (shaking at 150 rpm). Treatments were conducted in EMEM (2.5% heat-inactivated FBS and with no selection agents), and the final concentration of BMP-9 and BMP-10 was 2 ng/mL and 40 ng/mL, respectively. HepG2 growth medium was removed from the culture plates, and cells were treated with the appropriate mixes of fusion protein and cytokine. Treatment duration was for 20-24 h at 37° C. (5% CO2). All treatments were performed in technical duplicates and at least one or two independent experiments were conducted for each cytokine. At the end of the treatment period, supernatants were transferred to a new plate, and centrifuged at 300 RPM for 3 min. Forty microlitres of supernatant from each condition was transferred to a new plate, onto which 180 μL of Quanti-Blue reagent was added. Quanti-Blue reagent was prepared following the manufacturer's instructions. Samples were incubated for 5-6 h with Quanti-Blue reagent at 37° C. At the end of the incubation, absorbance was read at 650 nm. The data were plotted in GraphPad Prism, which was used to calculate IC50 values as a non-linear regression.

The target in another data set is T2, activin A (Homo sapiens, UniProt P08476).
T2 sequence (P08476 311-426): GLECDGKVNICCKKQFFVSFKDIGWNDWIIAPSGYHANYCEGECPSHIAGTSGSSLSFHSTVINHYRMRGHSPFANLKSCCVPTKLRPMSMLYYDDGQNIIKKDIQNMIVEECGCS
Briefly: Small-scale activin A ELISA with CHO supernatants. The note with it: 1 μg/mL protein, 30 ng/mL activin A, loss of signal = binding. The protocol: (§1) Small-scale testing of ActRIIB-ECD fusion proteins. Additional investigation of a series of exemplary agents was performed using proteins expressed in CHO cells. Briefly, DNA encoding the ActRIIB-ECD-Fc fusion constructs was transfected in cells seeded in 12-well plates in a final volume of 1 ml. After 7 days, the supernatant was harvested, clarified, and the amount of expressed protein in each well was quantified using standard methods. The potency of each agent for inhibition of activin A, BMP-9 and BMP-10 was determined in three separate assays.
The next day, the plate was washed three times with buffer (Biolegend #421601). […] Expressed proteins in the supernatants described above were diluted to 2 μg/mL in assay diluent (0.5% BSA, 0.05% tween-20 in PBS), mixed 1:1 with recombinant human activin A (R&D #338-AC, 60 ng/mL, diluted in assay diluent). Complexes were immediately added to the 96-well plate in technical duplicates and incubated for 1 h at RT (concentration of expressed protein and activin A on the plate were 1 μg/mL and 30 ng/mL, respectively). […] In this assay, a loss of signal indicates binding of the exemplary agent to activin A, which prevents activin A binding to the anti-activin A antibody on the plate. Results are expressed as a % of the signal obtained with wild-type ActRIIB-Fc (P75).
In general terms: In an ELISA, binding on a coated surface is turned into a signal by an enzyme label.

A short description of data set [1]: SEC-HPLC monomer and HMW content of purified fusion proteins. The note with it: after Protein A purification. It is filed as physicochemical. The text has this: Given that protein aggregation can be indicative of reduced conformational stability and decreased activity, Size-Exclusion Chromatography-High Performance Liquid Chromatography (SEC-HPLC) was used to determine the purity of each ActRIIB-ECD construct. This method measured the percentage of intact monomeric species as well as the presence of aggregates and/or degradation products.
All proteins expressed efficiently in CHO and/or 293 cells and purification efficiency of each using Protein A affinity chromatography was similar.

The test system of the next data set is TGFβ superfamily ligands. Briefly: Neutralization profile across TGFβ superfamily ligands (HEK293 and HepG2 reporter assays, summary). The note with it: for impact of modifications in the Fc sequence on activin A, activin B, GDF-8, and GDF-11 potency: all ligands. It is filed as cell-based, human. The method, then:
Potency testing by neutralization on cell-based assays. Characterization of the activin A, activin B, GDF-8, and GDF-11 inhibition potency (IC50) of the fusion proteins was performed using a cell-based reporter assay. TGFβ-reporter HEK293 cells were obtained from InvivoGen (San Diego, CA, cat. no. hkb-tgfb) and were maintained following the manufacturer's instructions. Briefly, cells were grown in high-glucose DMEM, containing 10% heat-inactivated FBS, 30 μg/mL blasticidin, 250 μg/mL hygromycin B, and 100 μg/mL zeocin (hereafter, “growth medium”). Once the cells reached 70-80% confluence, they were detached in growth medium by gently tapping on the flask. For all assays, cells were seeded in 96-well plates at a density of 20,000 cells per well in growth medium. Cells were left to attach for 10 minutes at room temperature (RT) prior to being transferred to a 37° C. incubator (5% CO2) overnight. The next day, treatments were prepared by combining the appropriate concentration of agent with activin A, activin B, GDF-8, or GDF-11 for 30 min at RT (shaking at 150 rpm). Treatments were conducted in high-glucose DMEM (serum-free and with no selection agents), and the final concentration of cytokine (ligand) was 0.3 nM. Growth medium was removed from the culture plates, and cells were treated with the appropriate mixes of fusion protein and cytokine. Treatment duration was for 18-22 h at 37° C. (5% CO2). All treatments were performed in technical duplicates and at least one or two independent experiments were conducted for each cytokine. At the end of the treatment period, supernatants were transferred to a new plate, and centrifuged at 300 RPM for 3 min. Forty microlitres of supernatant from each condition was transferred to a new plate, into which 180 μL of Quanti-Blue reagent (InvivoGen, cat. no. rep-qbs) was added. Quanti-Blue reagent was prepared following the manufacturer's instructions. Samples were incubated for 45 min at 37° C. At the end of the incubation, absorbance was read at 650 nm. The data were plotted in GraphPad Prism, which was used to calculate IC50 values as a non-linear regression.
Characterization of the BMP-9 and BMP-10 inhibition potency (IC50) of the fusion proteins was performed using a second cell-based reporter assay. Human hepatic HepG2 cells were transfected with a SEAP-encoding plasmid, in which SEAP expression is under the control of the murine Id1 promoter. A stable pool was generated from this transfection. Cells were grown in EMEM, containing 10% heat-inactivated FBS and 200 μg/mL zeocin (hereafter, “HepG2 growth medium”). […] For all assays, cells were seeded in 96-well plates at a confluence of 100,000 cells per well in HepG2 growth medium. Cells were left to attach for 10 minutes at RT prior to being transferred to a 37° C. incubator (5% CO2) overnight. The next day, treatments were prepared in EMEM (2.5% heat-inactivated FBS and with no selection agents) by combining the appropriate concentration of agent with BMP-9 or BMP-10 for 30 min at RT (shaking at 150 rpm). Treatments were conducted in EMEM (2.5% heat-inactivated FBS and with no selection agents), and the final concentration of BMP-9 and BMP-10 was 2 ng/mL and 40 ng/mL, respectively. HepG2 growth medium was removed from the culture plates, and cells were treated with the appropriate mixes of fusion protein and cytokine. Treatment duration was for 20-24 h at 37° C. (5% CO2). All treatments were performed in technical duplicates and at least one or two independent experiments were conducted for each cytokine. At the end of the treatment period, supernatants were transferred to a new plate, and centrifuged at 300 RPM for 3 min. Forty microlitres of supernatant from each condition was transferred to a new plate, onto which 180 μL of Quanti-Blue reagent was added. Quanti-Blue reagent was prepared following the manufacturer's instructions. Samples were incubated for 5-6 h with Quanti-Blue reagent at 37° C. […]
Background: Reporter assays use an easily measured gene product as a stand-in for the process of interest.

The target in a further data set is T3, BMP-9 (Homo sapiens, UniProt Q9UK05).
T3 sequence (Q9UK05 320-429): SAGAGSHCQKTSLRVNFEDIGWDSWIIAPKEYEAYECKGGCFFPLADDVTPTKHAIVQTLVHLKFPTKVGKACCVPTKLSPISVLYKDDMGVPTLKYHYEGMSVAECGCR
Put plainly: Small-scale BMP-9 ELISA with CHO supernatants. It is filed as binding. The settings on record: BMP-9 10 ng/mL. The method, then: as §1
The next day, the plate was washed three times. […] Expressed proteins in the supernatants were diluted 1 in 2 in assay diluent (0.5% BSA, 0.05% tween-20 in PBS) and 100 μl was added to the 96-well plate in technical duplicates. After a 1.5-hour incubation at RT, the plate was washed three times. […] In this assay, a loss of signal indicates less binding of the exemplary agent to BMP-9. Results are expressed as a % of the signal obtained with wild-type ActRIIB-Fc (P75).

The nature of data set [2]: Single-injection body weight gain in wild-type mice. It is filed as in vivo. The note with it: single 25 mg/kg subcutaneous injection, after 4 days, vs vehicle. The protocol:
To investigate the target engagement of exemplary ActRIIB-ECD polypeptide constructs in vivo, mice (n=6/group) were injected with given agents (25 mg/kg, subcutaneous injection), and sacrificed after 4 days to assess body weight gain.

B1: P751: hActRIIB L33Y, 14 aa linker, IgG1-DL Fc; SEQ ID 176 (protein)
chain: ETRECIYYNANWELERTNQSGLERCEGEQDKRYHCYASWRNSSGTIELVKKGCWLDDFNCYDRQECVATEENPQVYFCCCEGNFCNERFTHLPEAGGPEVTYEPPPTGGGGSGGGGSGG[human IgG1 Fc and a few adjoining residues not spelt out]
B1: the “inhibition potency on BMP-10 relative to P75” value with BMP-10 is on record as “unchanged or modestly reduced”. Further, the “activin A binding, ELISA signal relative to P75” value with activin A is “potent activin A binding”. In data set [1], the “high molecular weight (HMW) content (SEC-HPLC)” value (“high molecular weight” for short) is 2% and the “monomer content (SEC-HPLC)” value is given as 98%.

B2: P1182: hActRIIB L33Y G27D, 14 aa linker, IgG1-DL Fc; SEQ ID 194 (protein)
chain: ETRECIYYNANWELERTNQSGLERCEDEQDKRYHCYASWRNSSGTIELVKKGCWLDDFNCYDRQECVATEENPQVYFCCCEGNFCNERFTHLPEAGGPEVTYEPPPTGGGGSGGGGSGG[human IgG1 Fc and a few adjoining residues not spelt out]
Consider B2, for which the “inhibition potency on BMP-10 relative to P75” value with BMP-10 is recorded as “unchanged or modestly reduced”. The “activin A binding, ELISA signal relative to P75” value in the data set with activin A was “potent activin A binding”. Moreover, in data set [1], the “high molecular weight” value is 2% and the “monomer content (SEC-HPLC)” value came out at 97%.

B3: P1374: hActRIIB L33W, 19 aa linker, IgG1 Y-DL Fc; SEQ ID 233 (protein)
chain: ETRECIYYNANWELERTNQSGLERCEGEQDKRWHCYASWRNSSGTIELVKKGCWLDDFNCYDRQECVATEENPQVYFCCCEGNFCNERFTHLPEAGGPEVTYEPPPTGGGGSGGGGSGGGGSGGGG[human IgG1 Fc with changes not spelt out]
As for B3, in the data set with TGFβ superfamily ligands, the “impact of modifications in the Fc sequence on activin A, activin B, GDF-8, and GDF-11 potency” value is given as “comparable to P1373”. Moreover, the “BMP-9 binding, ELISA signal relative to P75” value with BMP-9 is on record as “near-undetectable binding to BMP-9”. Besides, in data set [1], the “high molecular weight” value came to 0% and the “monomer content (SEC-HPLC)” value is reported as 99%.

B4: P1406: hActRIIB L14E, L33W, 19 aa linker, IgG1-DL Fc; SEQ ID 245 (protein)
chain: ETRECIYYNANWEEERTNQSGLERCEGEQDKRWHCYASWRNSSGTIELVKKGCWLDDFNCYDRQECVATEENPQVYFCCCEGNFCNERFTHLPEAGGPEVTYEPPPTGGGGSGGGGSGGGGSGG[human IgG1 Fc and a few adjoining residues not spelt out]
With B4, in the data set on TGFβ superfamily ligands, the “inhibition of BMP-9 or BMP-10” value was “minimal inhibition of either BMP-9 or BMP-10”. For the same molecule, the “BMP-9 binding, ELISA signal relative to P75” value in the data set with BMP-9 is reported as “near-undetectable binding to BMP-9”. Besides, in data set [1], the “high molecular weight” value is reported as 3% and the “monomer content (SEC-HPLC)” value turned out to be 97%. Moreover, the body weight gain entry in data set [2] is on record as “apparent body weight gain that did not reach statistical significance”.

B5: P1371: hActRIIB L33W, 14 aa linker, IgG1 Y-DL Fc; SEQ ID 230 (protein)
chain: ETRECIYYNANWELERTNQSGLERCEGEQDKRWHCYASWRNSSGTIELVKKGCWLDDFNCYDRQECVATEENPQVYFCCCEGNFCNERFTHLPEAGGPEVTYEPPPTGGGGSGGGGSGGGG[human IgG1 Fc with changes not spelt out]
As to B5, in the data set with TGFβ superfamily ligands, the “impact of modifications in the Fc sequence on activin A, activin B, GDF-8, and GDF-11 potency” value is reported as “comparable to P1229”. In data set [1], the “high molecular weight” value was determined as 1% and the “monomer content (SEC-HPLC)” value is 99%.
